“And” between values parts separate entries of the source, which are not always exact repeats. Identical values can stand only once. In all, about 16,000 compounds went through this assay and about 40 (0.2%) were called active. Roughly 1% stayed inconclusive and do not appear here. Calls follow the shape of the dose curve; as a rule, active = well fitted activation curve with a large enough effect; inconclusive = small, poorly fitted or top-dose-only effect, or another doubt; inactive = no such curve, though single readings can be large or run the other way. Some of the results follow.
% is scaled to controls: 0 for no effect and ±100 for the full control effect.

This experiment concerns the target Rap guanine nucleotide exchange factor 4 (Homo sapiens) (UniProt Q8WZA2). Description: Validation qHTS for agonist of cAMP-regulated guanine nucleotide exchange factor 4 (EPAC2).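 Also: exchange makes BODIPY-GDP fluorescence drop when released from Rap1B; series mostly up to about 150 µM.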 Conditions: EPAC2 Rap1B BODIPY-GDP exchange, fluorescence; activation: hits give high values. An outline of the steps: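 Fluorescent exchange assay: 100 nM EPAC2 with 250 nM RAP1B-BODIPY-GDP and 50 uM GDP; compound added, 5 min at room temperature, then read (ex 480/em 540 nm) every 5 min for 30 min. Normalized to 6.5 mM cAMP agonist control.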
Chain of UniProt Q8WZA2 (Q8WZA2 whole entry, looked up): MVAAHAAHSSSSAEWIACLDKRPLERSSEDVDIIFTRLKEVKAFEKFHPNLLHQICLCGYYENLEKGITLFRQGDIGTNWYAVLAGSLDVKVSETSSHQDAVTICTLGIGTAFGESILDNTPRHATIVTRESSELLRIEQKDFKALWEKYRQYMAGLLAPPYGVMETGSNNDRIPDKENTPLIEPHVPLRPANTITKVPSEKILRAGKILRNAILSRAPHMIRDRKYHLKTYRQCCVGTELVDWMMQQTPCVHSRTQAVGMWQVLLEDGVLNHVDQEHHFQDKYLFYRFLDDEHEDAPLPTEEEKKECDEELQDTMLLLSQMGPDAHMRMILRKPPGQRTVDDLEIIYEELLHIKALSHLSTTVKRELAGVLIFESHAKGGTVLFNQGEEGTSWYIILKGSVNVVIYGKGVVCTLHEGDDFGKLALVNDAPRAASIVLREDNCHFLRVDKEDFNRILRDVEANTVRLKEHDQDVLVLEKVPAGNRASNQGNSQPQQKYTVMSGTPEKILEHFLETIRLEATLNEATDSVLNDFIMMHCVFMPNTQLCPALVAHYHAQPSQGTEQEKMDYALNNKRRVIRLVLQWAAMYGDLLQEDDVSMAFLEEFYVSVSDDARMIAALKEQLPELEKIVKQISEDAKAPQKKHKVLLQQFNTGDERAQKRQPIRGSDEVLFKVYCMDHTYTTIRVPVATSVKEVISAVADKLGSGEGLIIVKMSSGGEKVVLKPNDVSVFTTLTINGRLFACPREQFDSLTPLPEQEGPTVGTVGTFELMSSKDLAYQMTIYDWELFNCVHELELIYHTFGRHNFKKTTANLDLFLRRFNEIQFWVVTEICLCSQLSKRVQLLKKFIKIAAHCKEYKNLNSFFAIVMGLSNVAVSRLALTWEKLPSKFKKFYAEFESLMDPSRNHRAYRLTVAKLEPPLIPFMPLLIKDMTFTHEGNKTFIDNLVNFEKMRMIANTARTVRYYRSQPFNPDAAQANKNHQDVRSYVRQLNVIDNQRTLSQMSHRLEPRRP
With `COCc1c(C(=O)N2CCN(C3CCCCC3)CC2)cnn1-c1ncc(C)c(-c2cccs2)n1`, the activation was inactive: -1.16%. `O=C(c1ccncc1)N1CCC2(CC1)CN(C(c1ccccc1)c1ccccc1)C2`: the activation is inactive: 3.63%. Next, `COc1ccc(Cl)cc1N=Nc1ncc[nH]1`: inactive: -19.3% and inactive: -12.5%; `Cc1c(-c2ccc(O)cc2)nn(-c2ccc(O)cc2)c1-c1ccc(OCCN2CCCCC2)cc1`: inactive: -6.37%. Next, `CCn1c(-c2ccccc2F)nc2cc(NC(C)=O)cc(C(=O)N(C)Cc3ccc4nccnc4c3)c21`: inactive: 4.22%; `COC(=O)c1c(OCc2ccc(F)cc2)cc(=O)n2c1CCN(Cc1ccc3cccnc3c1)CC2`: inactive: -2.07%; `CN(C)C(=O)c1ccc(-c2nccc(Nc3ccc(F)cc3)n2)cc1`: inactive: -17.9%. Regarding `C[C@@H]1CN(Cc2ccc3c(c2)CN(Cc2cccn2-c2ccccn2)CCO3)C[C@H](C)O1`, the activation is inactive: -10.2%. On to `CCn1c(=O)[nH]c2cc(Cl)c(Cl)cc21`, for which the activation was inactive: -16.2% and inactive: -14.2%. Next, `CCC(C)(Oc1ccc(C2(c3ccc(OC(C)(CC)C(=O)O)cc3)CCCCC2)cc1)C(=O)O` (stereo unspecified): inactive: -1.01%. For `COc1ccccc1CNc1ncncc1-c1ccccc1C(F)(F)F`, the activation was inactive: 1.19%. Consider `OCC1NCC(O)C(O)C1O` (stereo unspecified), for which the activation was inactive: -21.7%.

Take `CCN(CC)CC(=O)Nc1c(C)cccc1C`: the activation was inactive: 9.12% [middle of 4 runs].

For the compound `COC(=O)CC1C(C)(C)C(=O)C2CC3=C(CC[C@]4(C)C3=CC(=O)OC4c3ccoc3)[C@@]1(C)C2=O` (stereo partly specified), the activation is inactive: -4.15%. With `Cc1ccc2ncc(C)c(/C=C/c3ccc(N(C)C)cc3)c2c1`, the activation is inactive: -11.7%. Next, `O=C(c1cccc(F)c1)N1CCC2(CCCN(c3ccccn3)C2)CC1`: inactive: 3.46%; `CC(=O)Nc1ccc(SC[C@H](C)CN2CC[C@H](O)CCC2=O)cc1`: inactive: -17.2%; `CCC(=O)O[C@@H]1CC(=O)O[C@H](C)C/C=C/C=C/[C@H](O)[C@H](C)C[C@H](CC=O)[C@H](O[C@@H]2O[C@H](C)[C@@H](O[C@H]3C[C@@](C)(O)[C@@H](OC(=O)CC)[C@H](C)O3)[C@H](N(C)C)[C@H]2O)[C@H]1OC`: inactive: -15.9%. Next, `COC(=O)c1cn([C@H]2C[C@@H](C(=O)N3CCCCCC3)N(Cc3ccsc3)C2)nn1`: inactive: 4.52%. Next, `COc1c(C)c2c(c(O)c1CC=C(C)CCC(=O)OCCN1CCOCC1)C(=O)OC2`: inactive: 1.47%; `COc1ccc(S(=O)(=O)N2c3ccc(Cl)cc3[C@@](O)(c3ccccc3Cl)[C@H]2C(=O)N2CCC[C@@H]2C(N)=O)cc1OC`: inactive: -0.623%.

Source of the values: PubChem BioAssay AID1645887 (National Center for Advancing Translational Sciences (NCATS), 2021).
